We go through 153 variants from a collection of fitness landscapes (doi:10.1016/j.celrep.2020.107928).

The full ranking holds about 81,000 sequences; the median of “one-hybrid fitness for binding parS DNA” is about -0.17, and the highest 2% start at about 0.51. The list shows a part of the results.

B1: Caulobacter ParB omega fusion; a variant is named by its letters at X, in order, B8GW30 (parent)
chain: MESVVVGEPGMSEGRRGLGRGLSALLGEVDAAPAQAPGEQLGGSREAPIEILQRNPDQPRRTFREEDLEDLSNSIREKGVLQPILVRPSPDTAGEYQIVAGERAWRAAQRAGLKTVPIMVRELDDLAVLEIGIIENVQRADLNVLEEALSYKVLMEKFERTQENIAQTIGKSXSHVANXMRLLXLPDEVQSYLVSGELTAXHARAIAAAADPVALAKQIIEGGLSVRETEALARKAPNLSAGKSKGGRPPRVKDTDTQALESDLSSVLGLDVSIDHRGSTGTLTITYATLEQLDDLCNRLTRGI

Variants of B1 are the subject of this assay. The assay can be described thus: one-hybrid fitness for binding parS DNA (scaled: cognate 1, non-cognate 0); higher = stronger binding. Particulars: with parS DNA site. Summed up: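 Fitness is the rescaled log change in variant-to-wild-type read ratio, measured by Illumina sequencing of plasmids before and after bacterial one-hybrid selection. The scale puts cognate at 1 and non-cognate at 0. Selection of Caulobacter ParB libraries, four specificity codons randomised, took place in E. coli USO with a HIS3 reporter, site 19 bp from the promoter, over 48 hours at 37°C on M9-minus-histidine with 0.1 mM IPTG and 5 mM 3-AT.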
Consider EMCS, for which the “one-hybrid fitness for binding parS DNA” value is ≤ 0.2.

ASLK: the “one-hybrid fitness for binding parS DNA” value was ≤ 0.2.

As to FDAT, the “one-hybrid fitness for binding parS DNA” value is ≤ 0.2.

Consider SDQP, for which the “one-hybrid fitness for binding parS DNA” value is ≤ 0.2.

For GQQS, the “one-hybrid fitness for binding parS DNA” value was ≤ 0.2.

Take KGDC: the “one-hybrid fitness for binding parS DNA” value is ≤ 0.2.

Regarding RPHW, the “one-hybrid fitness for binding parS DNA” value was ≤ 0.2.

On to PWPE, for which the “one-hybrid fitness for binding parS DNA” value is ≤ 0.2.

For the variant LASQ, the “one-hybrid fitness for binding parS DNA” value was ≤ 0.2.

Regarding FVLA, the “one-hybrid fitness for binding parS DNA” value was ≤ 0.2.

Regarding KQQA, the “one-hybrid fitness for binding parS DNA” value was ≤ 0.2.

For GSTM, the “one-hybrid fitness for binding parS DNA” value was ≤ 0.2.

As for VALY, the “one-hybrid fitness for binding parS DNA” value was ≤ 0.2.

Consider LRRC, for which the “one-hybrid fitness for binding parS DNA” value is ≤ 0.2.

In the case of RHVG, the “one-hybrid fitness for binding parS DNA” value turned out to be 0.847.

Take TCLT: the “one-hybrid fitness for binding parS DNA” value is ≤ 0.2.

Take SVLT: the “one-hybrid fitness for binding parS DNA” value is ≤ 0.2.

For the variant SLPK, the “one-hybrid fitness for binding parS DNA” value was ≤ 0.2.

As for VDAQ, the “one-hybrid fitness for binding parS DNA” value is ≤ 0.2.

In the case of CALM, the “one-hybrid fitness for binding parS DNA” value was ≤ 0.2.

For RCPS, the “one-hybrid fitness for binding parS DNA” value was determined as 0.88.

Take VRRE: the “one-hybrid fitness for binding parS DNA” value was ≤ 0.2.

In the case of TGQS, the “one-hybrid fitness for binding parS DNA” value was ≤ 0.2.

For RDHA, the “one-hybrid fitness for binding parS DNA” value was ≤ 0.2.

Take ADTG: the “one-hybrid fitness for binding parS DNA” value was ≤ 0.2.

As for DIIR, the “one-hybrid fitness for binding parS DNA” value was ≤ 0.2.

On to ILNG, for which the “one-hybrid fitness for binding parS DNA” value is ≤ 0.2.

For TYMN, the “one-hybrid fitness for binding parS DNA” value was ≤ 0.2.

As for TVPY, the “one-hybrid fitness for binding parS DNA” value was ≤ 0.2.

HDRV: the “one-hybrid fitness for binding parS DNA” value was ≤ 0.2.

On to VRDG, for which the “one-hybrid fitness for binding parS DNA” value was ≤ 0.2.

In the case of QGLV, the “one-hybrid fitness for binding parS DNA” value was ≤ 0.2.

Consider TSCV, for which the “one-hybrid fitness for binding parS DNA” value is ≤ 0.2.

On to LRYT, for which the “one-hybrid fitness for binding parS DNA” value was ≤ 0.2.

LICS: the “one-hybrid fitness for binding parS DNA” value is ≤ 0.2.

As to LNLL, the “one-hybrid fitness for binding parS DNA” value is ≤ 0.2.

In the case of ASMA, the “one-hybrid fitness for binding parS DNA” value was ≤ 0.2.

Turning to LQCC, the “one-hybrid fitness for binding parS DNA” value was ≤ 0.2.

As to GPKD, the “one-hybrid fitness for binding parS DNA” value is ≤ 0.2.

As to AQTV, the “one-hybrid fitness for binding parS DNA” value is ≤ 0.2.

For RYQH, the “one-hybrid fitness for binding parS DNA” value was ≤ 0.2.

Consider FWYG, for which the “one-hybrid fitness for binding parS DNA” value is 0.223.

Turning to QAGS, the “one-hybrid fitness for binding parS DNA” value is ≤ 0.2.

With HESV, the “one-hybrid fitness for binding parS DNA” value was ≤ 0.2.

For the variant PETH, the “one-hybrid fitness for binding parS DNA” value is ≤ 0.2.

On to RAKV, for which the “one-hybrid fitness for binding parS DNA” value is ≤ 0.2.

RQEP: the “one-hybrid fitness for binding parS DNA” value is ≤ 0.2.

Consider MEPN, for which the “one-hybrid fitness for binding parS DNA” value was ≤ 0.2.

On to IAAP, for which the “one-hybrid fitness for binding parS DNA” value is ≤ 0.2.

As for LLPN, the “one-hybrid fitness for binding parS DNA” value was ≤ 0.2.

On to LGNA, for which the “one-hybrid fitness for binding parS DNA” value was ≤ 0.2.

Take PCQL: the “one-hybrid fitness for binding parS DNA” value was ≤ 0.2.

Consider HTAN, for which the “one-hybrid fitness for binding parS DNA” value is ≤ 0.2.

Turning to LRQL, the “one-hybrid fitness for binding parS DNA” value was ≤ 0.2.

With MDKT, the “one-hybrid fitness for binding parS DNA” value was ≤ 0.2.

In the case of LLPR, the “one-hybrid fitness for binding parS DNA” value was ≤ 0.2.

Take PKYM: the “one-hybrid fitness for binding parS DNA” value is ≤ 0.2.

With SLPA, the “one-hybrid fitness for binding parS DNA” value was ≤ 0.2.

For the variant VDYG, the “one-hybrid fitness for binding parS DNA” value is ≤ 0.2.

Consider PVKG, for which the “one-hybrid fitness for binding parS DNA” value is ≤ 0.2.

Take SVQL: the “one-hybrid fitness for binding parS DNA” value is ≤ 0.2.

Turning to APCN, the “one-hybrid fitness for binding parS DNA” value was ≤ 0.2.

For the variant HGDS, the “one-hybrid fitness for binding parS DNA” value was ≤ 0.2.

As for PRAT, the “one-hybrid fitness for binding parS DNA” value was ≤ 0.2.

As to ILPC, the “one-hybrid fitness for binding parS DNA” value is ≤ 0.2.

Consider SMRR, for which the “one-hybrid fitness for binding parS DNA” value is ≤ 0.2.

For the variant QMSY, the “one-hybrid fitness for binding parS DNA” value is ≤ 0.2.

ERYT: the “one-hybrid fitness for binding parS DNA” value was ≤ 0.2.

For VAIL, the “one-hybrid fitness for binding parS DNA” value was ≤ 0.2.

Take KYAM: the “one-hybrid fitness for binding parS DNA” value was ≤ 0.2.

Turning to NTVR, the “one-hybrid fitness for binding parS DNA” value is ≤ 0.2.

Turning to DWAR, the “one-hybrid fitness for binding parS DNA” value is ≤ 0.2.

On to MEPL, for which the “one-hybrid fitness for binding parS DNA” value is ≤ 0.2.

Turning to TYLG, the “one-hybrid fitness for binding parS DNA” value was ≤ 0.2.

In the case of IRTK, the “one-hybrid fitness for binding parS DNA” value is ≤ 0.2.

With YVNE, the “one-hybrid fitness for binding parS DNA” value was ≤ 0.2.

Regarding PSEP, the “one-hybrid fitness for binding parS DNA” value was ≤ 0.2.

With LMVS, the “one-hybrid fitness for binding parS DNA” value is ≤ 0.2.

With LSQK, the “one-hybrid fitness for binding parS DNA” value is ≤ 0.2.

In the case of MKVT, the “one-hybrid fitness for binding parS DNA” value is ≤ 0.2.

As to NGPN, the “one-hybrid fitness for binding parS DNA” value is ≤ 0.2.

As for TALD, the “one-hybrid fitness for binding parS DNA” value is ≤ 0.2.

MWHG: the “one-hybrid fitness for binding parS DNA” value was ≤ 0.2.

DHSP: the “one-hybrid fitness for binding parS DNA” value is ≤ 0.2.

Regarding YRCW, the “one-hybrid fitness for binding parS DNA” value was ≤ 0.2.

As to HSSD, the “one-hybrid fitness for binding parS DNA” value was ≤ 0.2.

In the case of PPKD, the “one-hybrid fitness for binding parS DNA” value is ≤ 0.2.

KYCR: the “one-hybrid fitness for binding parS DNA” value was ≤ 0.2.

As for IEHT, the “one-hybrid fitness for binding parS DNA” value was ≤ 0.2.

On to LLTD, for which the “one-hybrid fitness for binding parS DNA” value is ≤ 0.2.

As to SVYT, the “one-hybrid fitness for binding parS DNA” value is ≤ 0.2.

LVHN: the “one-hybrid fitness for binding parS DNA” value is ≤ 0.2.

For the variant WARR, the “one-hybrid fitness for binding parS DNA” value was ≤ 0.2.

As to VRPD, the “one-hybrid fitness for binding parS DNA” value was ≤ 0.2.

As for RVHW, the “one-hybrid fitness for binding parS DNA” value is ≤ 0.2.

Regarding NSFG, the “one-hybrid fitness for binding parS DNA” value is ≤ 0.2.

Regarding RQYN, the “one-hybrid fitness for binding parS DNA” value was found to be 0.393.

With CVQS, the “one-hybrid fitness for binding parS DNA” value is ≤ 0.2.

For SRRQ, the “one-hybrid fitness for binding parS DNA” value is ≤ 0.2.

With CRFV, the “one-hybrid fitness for binding parS DNA” value is ≤ 0.2.

As for AHHL, the “one-hybrid fitness for binding parS DNA” value was ≤ 0.2.

With QYDR, the “one-hybrid fitness for binding parS DNA” value was ≤ 0.2.

Turning to MAAG, the “one-hybrid fitness for binding parS DNA” value is ≤ 0.2.

Regarding IVAE, the “one-hybrid fitness for binding parS DNA” value is ≤ 0.2.

MNRT: the “one-hybrid fitness for binding parS DNA” value was ≤ 0.2.

For the variant PQLI, the “one-hybrid fitness for binding parS DNA” value was ≤ 0.2.

On to MIPK, for which the “one-hybrid fitness for binding parS DNA” value is ≤ 0.2.

Regarding WRGE, the “one-hybrid fitness for binding parS DNA” value was ≤ 0.2.

Regarding QETV, the “one-hybrid fitness for binding parS DNA” value was ≤ 0.2.

Turning to QYQV, the “one-hybrid fitness for binding parS DNA” value is ≤ 0.2.

Take YKTR: the “one-hybrid fitness for binding parS DNA” value is ≤ 0.2.

DPES: the “one-hybrid fitness for binding parS DNA” value was ≤ 0.2.

As for QTLK, the “one-hybrid fitness for binding parS DNA” value is ≤ 0.2.

GLPI: the “one-hybrid fitness for binding parS DNA” value was ≤ 0.2.

As to KHGS, the “one-hybrid fitness for binding parS DNA” value is ≤ 0.2.

On to AASK, for which the “one-hybrid fitness for binding parS DNA” value was ≤ 0.2.

Regarding KKVS, the “one-hybrid fitness for binding parS DNA” value is ≤ 0.2.

Consider DNMK, for which the “one-hybrid fitness for binding parS DNA” value is ≤ 0.2.

Regarding PASG, the “one-hybrid fitness for binding parS DNA” value is ≤ 0.2.

Turning to GVAA, the “one-hybrid fitness for binding parS DNA” value is ≤ 0.2.

GPRW: the “one-hybrid fitness for binding parS DNA” value was ≤ 0.2.

In the case of NDTN, the “one-hybrid fitness for binding parS DNA” value was ≤ 0.2.

On to VHPG, for which the “one-hybrid fitness for binding parS DNA” value was ≤ 0.2.

Consider TQWS, for which the “one-hybrid fitness for binding parS DNA” value is ≤ 0.2.

For the variant ATNA, the “one-hybrid fitness for binding parS DNA” value is ≤ 0.2.

As for RSTF, the “one-hybrid fitness for binding parS DNA” value stood at 0.249.

With AYSM, the “one-hybrid fitness for binding parS DNA” value is ≤ 0.2.

In the case of MNAC, the “one-hybrid fitness for binding parS DNA” value is ≤ 0.2.

Regarding ERVY, the “one-hybrid fitness for binding parS DNA” value is ≤ 0.2.

With GTGS, the “one-hybrid fitness for binding parS DNA” value was ≤ 0.2.

Consider PMCP, for which the “one-hybrid fitness for binding parS DNA” value was ≤ 0.2.

As for SRKC, the “one-hybrid fitness for binding parS DNA” value was ≤ 0.2.

For PILY, the “one-hybrid fitness for binding parS DNA” value is ≤ 0.2.

On to CVSY, for which the “one-hybrid fitness for binding parS DNA” value was ≤ 0.2.

Consider ENSV, for which the “one-hybrid fitness for binding parS DNA” value was ≤ 0.2.

For the variant PVSQ, the “one-hybrid fitness for binding parS DNA” value is ≤ 0.2.

Regarding FQFS, the “one-hybrid fitness for binding parS DNA” value was ≤ 0.2.

As for CCWY, the “one-hybrid fitness for binding parS DNA” value was ≤ 0.2.

Turning to TLDL, the “one-hybrid fitness for binding parS DNA” value was ≤ 0.2.

With RMGV, the “one-hybrid fitness for binding parS DNA” value is ≤ 0.2.

Regarding NHFG, the “one-hybrid fitness for binding parS DNA” value is ≤ 0.2.

For TQKH, the “one-hybrid fitness for binding parS DNA” value is ≤ 0.2.

Regarding QCVF, the “one-hybrid fitness for binding parS DNA” value was ≤ 0.2.

For the variant LSHT, the “one-hybrid fitness for binding parS DNA” value is ≤ 0.2.

In the case of PCVT, the “one-hybrid fitness for binding parS DNA” value was ≤ 0.2.

Take QRRN: the “one-hybrid fitness for binding parS DNA” value is ≤ 0.2.

For VITH, the “one-hybrid fitness for binding parS DNA” value was ≤ 0.2.

QETS: the “one-hybrid fitness for binding parS DNA” value is ≤ 0.2.

On to ISLT, for which the “one-hybrid fitness for binding parS DNA” value is ≤ 0.2.

As for MTLV, the “one-hybrid fitness for binding parS DNA” value was ≤ 0.2.

Take HIDS: the “one-hybrid fitness for binding parS DNA” value is ≤ 0.2.

Consider KRHS, for which the “one-hybrid fitness for binding parS DNA” value is ≤ 0.2.

FNKR: the “one-hybrid fitness for binding parS DNA” value was ≤ 0.2.
